Laboratory results published in PubChem BioAssay AID485364 (National Center for Advancing Translational Sciences (NCATS), 2010).
About 11,000 (3.1%) of roughly 360,000 compounds were called active. Inconclusive means that the source gave no clear call. Such entries were picked first, then a sample of the others. Calls follow the shape of the dose curve; as a rule, active = well fitted inhibition curve with a large enough effect; inconclusive = small, poorly fitted or top-dose-only effect; inactive = no such curve, though single readings can be large or run the other way. No potency is given beside an inconclusive call; the fits are too rough.

Target: Schistosoma mansoni thioredoxin glutathione reductase (TGR) (UniProt Q962Y6)
Test: qHTS Assay for the Inhibitors of Schistosoma Mansoni Peroxiredoxins; also: nearly all actives have a fitted effect of over 60% in size
Settings: purified TGR, DTNB reduction, TNB absorbance 405 nm; activity change, negative = inhibition: at 114 µM (top of the series) unless noted
How it was run: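 TGR 20 nM + NADPH 100 uM (dispensed conc.), cpd preinc 15 min RT; start with NADPH (500 uM addition) then DTNB (15 mM addition). Kinetic TNB absorbance, 405 nm filter. Four-parameter Hill fit across titration.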
% is scaled to controls: 0 for no effect and ±100 for the full control effect; potency is read from the fitted curve at half-maximal effect; tags tell the direction and shape of the fitted curve.

| Structure (SMILES) | Potency | activity change, negative = inhibition |
| --- | --- | --- |
| O=C(/C=C/c1ccc(Cl)cc1)c1ccc([N+](=O)[O-])o1 | inconclusive [inhibitor, full curve] |  |
| C=CCc1c(C)nc(SC)nc1Nc1ccc(C(C)=O)cc1 | inconclusive [inhibitor, full curve] |  |
| CCOC(=O)Cc1ccc(NC(=O)Nc2nnc(N3CCCCC3C)s2)cc1 (stereo not drawn) |  | inactive: -3.86% |
| COc1cccc(C(=O)NC2=NC(c3ccccc3F)CC(=O)N2)c1 (stereo not drawn) |  | inactive: -3.45% |
| COc1cc(C(=O)N=c2sccn2C)c([N+](=O)[O-])cc1OC | inconclusive [inhibitor, full curve] |  |
| CCCCCOC(=O)CSc1nc2sc3c(c2c(=O)n1Cc1ccccc1)CC(C)(CC)OC3 (stereo not drawn) |  | inactive: 11% |
| CCOc1ccc(-c2cc3nc(C4CCN(C(=O)OC(C)(C)C)CC4)c(C(=O)Nc4cccc(C(F)(F)F)c4)cn3n2)cc1 |  | inactive: 1.5% |
| Cc1nnc(N(Cc2ccco2)C(=O)c2ccno2)s1 | inconclusive [inhibitor, partial curve] |  |
| COc1ccc(N2CC(C(=O)Nc3nnc(SCc4cccnc4)s3)CC2=O)cc1 (stereo not drawn) |  | inactive: -19.1% |
| CC(C)OCCCNC(=S)Nc1ccc2nc3n(c(=O)c2c1)CCCCC3 | inconclusive [inhibitor, partial curve] |  |
| COC(=O)C1CCN(C2=C(NS(=O)(=O)c3ccc(Cl)cc3)C(=O)c3ccccc3C2=O)CC1 | inconclusive [inhibitor, partial curve] |  |
| c1ccc(CCn2nnnc2CN2CCc3ccccc32)cc1 | active: 12.6 µM |  |
| CCCC(C1=C(O)CC(C)(C)CC1=O)C1C(=O)CC(C)(C)CC1=O (stereo not drawn) | inconclusive [inhibitor, full curve] |  |
| CCCCN(C)CCCNC(=O)CCn1nc(-c2ccccc2)ccc1=O |  | inactive: 0% |
| COc1ccc(CNC(=O)CCS(=O)(=O)c2cc3c(cc2Cl)NC(=O)CO3)cc1 |  | inactive: 4.68% |
| O=C(NCCc1cn2ccccc2n1)c1cc(COc2c(F)cccc2F)on1 | active: 39.8 µM |  |
| CCC(=O)N1c2ccc(S(=O)(=O)CCC(=O)NCc3ccc(OC)cc3)cc2CC1C (stereo not drawn) |  | inactive: 0.755% |
| COCCN(C(=O)COC(=O)c1ccc2c(c1)OCCO2)c1c(N)n(Cc2ccccc2)c(=O)[nH]c1=O | inconclusive [inhibitor, single point] |  |
| O=C(Nc1ncn[nH]1)c1c(Cl)ccc(Cl)c1Cl |  | inactive: 0.881% |
| CC[n+]1c(/C=C/N(C)c2ccccc2)sc2ccc(Cl)cc21 |  | inactive: -23.5% |
| CCOc1ccc(CNC(=O)COc2cc(=O)n(C)c3ccccc23)cc1 |  | inactive: -0.431% |
| COc1ccc(-n2c(C)ccc2-c2ccccc2)cn1 | inconclusive [inhibitor, partial curve] |  |
| CCN1CCCC1CNC(=O)c1ccc2c(=O)n(CCOC)c(=O)[nH]c2c1 (stereo not drawn) | inconclusive [inhibitor, partial curve, poor fit] |  |
| O=C1C2ON(c3ccccc3)C(c3ccncc3)C2C(=O)N1c1ccc(Br)cc1 (stereo not drawn) | active: 44.7 µM |  |
| Cc1ccc(S(=O)(=O)N(C)c2c(C)ccc(S(=O)(=O)N3CCN(C=O)CC3)c2C)cc1 |  | inactive: -3.44% |
| Cc1ccc(NC(=O)NCCc2c(C)nn(C)c2C)c(Cl)c1 |  | inactive: 3.06% |

| Structure (SMILES) | Potency | activity change, negative = inhibition |
| --- | --- | --- |
| C=CCc1cc(C=C2C(=O)N(C)C(=O)N(C)C2=O)cc(OCC)c1OCc1ccccc1 | active: 31.6 µM |  |
| Cn1c(CNc2ccccc2O)nc2ccccc21 | inconclusive [inhibitor, partial curve] |  |
| CCc1cc2ccc(C)cc2nc1SCC(=O)Nc1cc(C)on1 | inconclusive [inhibitor, single point] |  |
| CCOc1ccc(Br)cc1CNCc1cccnc1 |  | inactive: 2.07% |
| O=C1OC(c2ccc(F)cc2)=C/C1=C\c1ccc(O)cc1 | active: 12.6 µM |  |
| CC(NC(=O)COc1ccccc1Cl)c1ccccc1 (stereo not drawn) |  | inactive: 11.3% |
| CN(C(=O)COc1ccccc1C(=O)NCCOc1ccccc1)c1ccccc1 |  | inactive: 12.4% |
| CCC(=O)Nc1sc2c(c1C(N)=O)CCC2 | inconclusive [inhibitor, partial curve] |  |
| COc1cccc(N2C(=O)CSC23C(=O)N(CC(=O)Nc2cc(C)ccc2C)c2ccccc23)c1 (stereo not drawn) |  | inactive: -9.51% |
| COc1ccc(C2CCCN2C(=S)Nc2cccc(C)c2)cc1OC (stereo not drawn) |  | inactive: 4% |
| Cc1cc2cccc(C)c2nc1SCC(=O)NCC1CCCO1 (stereo not drawn) | inconclusive [inhibitor, partial curve] |  |
| O=C(/C=C\c1ccco1)Oc1cccc2cccnc12 | inconclusive [inhibitor, partial curve] |  |
| CCOC(=O)[C@H]1O[C@@H]1C(=O)N[C@@H](CC(C)C)C(=O)NCCC(C)C | inconclusive [inhibitor, partial curve] |  |
| CCOC(=O)C1CCCN(C(=O)CCCn2nnnc2CN2CCC(C)CC2)C1 (stereo not drawn) | inconclusive [inhibitor, partial curve] |  |
| O=C(CN1CCN(C2CCCCC2)CC1)c1ccc2cc[nH]c2c1 | active: 31.6 µM |  |
| COc1cccc(-c2nc(CS(=O)(=O)CC(=O)NCc3ccccc3)c(C)o2)c1 | inconclusive [inhibitor, partial curve] |  |
| CC1(C)CC(NC(=O)c2cccc(S(=O)(=O)N(Cc3ccccc3)c3ccccc3)c2)CC(C)(C)N1 |  | inactive: 0.493% |
| CCCCC(NC(=O)Cc1c(C)c2cc3c4c(oc3cc2oc1=O)CCCC4)C(=O)O (stereo not drawn) | inconclusive [inhibitor, single point] |  |
| CCC(=O)OC1CC(C)N(C(=O)c2ccccc2)c2ccc(C)cc21 (stereo not drawn) | inconclusive [inhibitor, single point] |  |
| CC1CC2=C(NC(=S)NC2c2cccc(F)c2)/C(=C/c2cccc(F)c2)C1 (stereo not drawn) | inconclusive [inhibitor, partial curve] |  |
| CC(C)N(C(=O)COC(=O)c1cncc(Br)c1)C(C)C |  | inactive: -4.15% |
| COc1cccc(/C=C2/C(=O)NN(c3ccc(Br)cc3)C2=O)c1O | inconclusive [inhibitor, partial curve] |  |
| O=C(NCCc1cccs1)c1ccc(CS(=O)Cc2ccc(Cl)cc2)o1 (stereo not drawn) | active: 44.7 µM |  |
| O=C(NCCc1ccc(F)cc1)C(=O)NCC(c1cccs1)S(=O)(=O)c1cccs1 (stereo not drawn) | inconclusive [inhibitor, partial curve] |  |
| O=C1C2=C(Nc3ccccc3SC2c2c(F)cccc2Cl)c2ccccc21 (stereo not drawn) | inconclusive [inhibitor, partial curve] |  |
| COc1cccc(NC(=S)Nc2cc(C(=O)O)ccc2N2CC3CC(C2)c2cccc(=O)n2C3)c1 (stereo not drawn) | inconclusive [inhibitor, full curve] |  |

| Structure (SMILES) | Potency | activity change, negative = inhibition |
| --- | --- | --- |
| Cc1ccc(N)cc1-n1c(C)ccc1C | inconclusive [inhibitor, full curve, poor fit] |  |
| COc1nccnc1NS(=O)(=O)c1ccc(NC(=S)NC(=O)c2cccc(F)c2)cc1 | active: 44.7 µM |  |
| C=C(C)C(=O)OC1(C(F)(F)F)Oc2cc(C)ccc2NC1=O (stereo not drawn) | active: 39.8 µM |  |
| COc1ccc(OC)c(N=c2ssnc2Cl)c1 | active: 56.2 µM |  |
| CCN(CC)c1ccc(C=C2C(=O)NC(=S)NC2=O)cc1 | active: 15.8 µM |  |
| Cc1ccccc1N1C(=O)CC(Sc2nnc(-c3ccccc3)o2)C1=O (stereo not drawn) | active: 2.82 µM |  |
| COC(=O)C1=C(C)N(c2ccc(F)cc2)C(=O)C1 | inconclusive [inhibitor, partial curve] |  |
| COCCN(Cc1nc2ccccc2c(=O)[nH]1)C(=O)COc1ccccc1-c1ccccc1 |  | inactive: 7.9% |
| CC1CCCC(C)N1CCCNC(=O)C(=O)Nc1ccc2nc3n(c(=O)c2c1)CCCCC3 (stereo not drawn) |  | inactive: -21.6% |
| CNC(=S)NCCc1cc2c(OC)ccc(OC)c2[nH]c1=O |  | inactive: 10% |
| Cc1cccc(C)c1NC(=O)c1ccc2nc(CCc3ccccc3)oc2c1 |  | inactive: 1.79% |
| Nc1c(C(=O)NCC2CCCO2)sc2nc3c(c(-c4ccco4)c12)CC/C3=C\c1ccco1 (stereo not drawn) | active: 17.8 µM |  |
| CCOC(=O)C1(Cc2ccccc2C)CCCN(C(=O)c2ccc3nccnc3c2)C1 (stereo not drawn) |  | inactive: -15.9% |
| O=C(NCCC1=CCCCC1)c1cc(COc2ccc(F)cc2Cl)on1 |  | inactive: 0% |
| CN(CC1CCOCC1)C(=O)CC1C(=O)NCCN1Cc1cccc(Oc2ccccc2)c1 (stereo not drawn) | active: 39.8 µM |  |
| Nc1nc(CSc2ncccn2)nc(Nc2ccccc2)n1 |  | inactive: -14.8% |
| Cc1ccc(C(=O)c2cc3c(cc2[N+](=O)[O-])OCCO3)cc1 |  | inactive: 17.7% |
| COc1ccc(NC(=O)C2=CC(c3ccc4c(c3)OCO4)=NS(=O)(=O)N2C)cc1OC |  | inactive: -0.95% |
| Cc1ccc(CN(C)C(=O)CC2C(=O)NCCN2CC2CCCCC2)cc1 (stereo not drawn) | inconclusive [inhibitor, partial curve] |  |
| CCOc1ccc(CN(C)C(=O)c2ccc(S(=O)(=O)N(C)c3ccccc3OC)cc2)cc1 |  | inactive: -14.3% |
| COc1ccc(N(C)S(=O)(=O)c2cccc(C(=O)NC3CCCCC3C)c2)cc1 (stereo not drawn) |  | inactive: -7.81% |
| COc1cc(/C=C2/C(=O)NN(c3ccc(Cl)cc3)C2=O)cc(OC)c1O | inconclusive [inhibitor, full curve] |  |
| Cc1ccc(CNC(=O)c2ccc3c(c2)NC(=O)C(CS(=O)(=O)Cc2cccc(F)c2)N3)cc1 (stereo not drawn) | inconclusive [inhibitor, partial curve] |  |
| O=C(NCc1ccco1)c1sc2ccccc2c1Cl | inconclusive [inhibitor, single point] |  |
| CCc1ccccc1NC(=O)c1ccc(F)c(S(=O)(=O)N2CCN(c3ccccc3OC)CC2)c1 |  | inactive: -4.5% |
| CCc1cc[n+](-c2nc([O-])sc2C=O)cc1 | inconclusive [inhibitor, partial curve] |  |
